Test results: ChEMBL document CHEMBL4888484, “Replenishing the malaria drug discovery pipeline: Screening and hit evaluation of the MMV Hit Generation Library 1 (HGL1) against asexual blood stage Plasmodium falciparum ,using a nano luciferase reporter read-out” (2022)
Among all 150,000 compounds or so, about 540 (0.36%) showed an effect of 50% or more. The list shows a part of the results.

test system: Plasmodium falciparum; assay: Primary screen in NF54 nanoGlo assay, in single point, at 2uM, 72h; a lower Z score goes with more inhibition; type: functional, Erythrocyte; details: timepoint 72 hour

SMILES | % Inhibition [%] | Z score
CCCc1cc(C(=O)N2CC(c3ccccn3)C2)cs1 | -19 | 3.64
COC(=O)[C@]1(F)CCN(C(=O)c2[nH]nc3c2CCCC3)C1 | 1 | -0.13
CCc1cc(C)c(C(=O)N2CCC[C@H]2C(C)(C)O)o1 | -7 | 0.71
COc1cccc(CN2CCNC(=O)[C@@H]2CC(=O)N2CCCCCCC2)c1OC | -18 | 1.95
Cc1ccc(F)cc1-c1nnc(NS(=O)(=O)c2ccsc2)o1 | -8 | 1.05
COc1ccc(OCC(=O)Nc2cnc(-c3cccc(Cl)c3)nc2)cc1 | -34 | 2.96
Cc1sc2ccccc2c1S(=O)(=O)NCc1ccccn1 | -7 | 0.96
Oc1cnc(-c2nc(C3CCOCC3)nn2C2Cc3ccccc3C2)cn1 | -11 | 2.24
O=C(NCCc1nnc2ccc(N3CCCCCC3)nn12)c1ccccc1 | 6 | -0.79
O=C(NC1CCN(c2cc3c(nn2)CCCC3)CC1)c1cccnc1 | -16 | 2.73
CC(=O)Nc1nc(N2CCC(C(=O)NCc3cc(F)cc(F)c3)CC2)sc1C(=O)N1CCCC1 | -14 | 1.33
CCn1nc(C)c(C(=O)N[C@H]2C[C@@H](c3nnc(CN(C)C)n3C)C2)c1C | -7 | 1.29
COc1cc(NC(C)=O)c(Cl)cc1C(=O)Nc1nnc(CCCOc2ccccc2)s1 | -2 | 0.32
CCN(C(=O)C1CCN(C(C)=O)CC1)C1CCCCC1 | 3 | -0.47
CCn1ncc2[nH]c(-c3ccc(OC)nc3)nc21 | -8 | 1.07
CN(C)C(=O)N1CCN(c2ncnc3c2Cc2ccccc2OC3)CC1 | -1 | 0.23
Cc1ccn(CC(=O)N2CC[C@@]3(CCCN(Cc4cccc(F)c4F)C3)C2)n1 | -16 | 1.45
CCC(CC)CN1CCCn2nc(CNC(=O)N(C)C)cc2C1 | -26 | 2.51
COC(CN1CC(O)CC1CO)c1ccc(Cl)cc1 (stereo unspecified) | 3 | -0.34
Cc1cc(C)nc(O[C@H]2CCCN(S(=O)(=O)C3CCCCC3)C2)n1 | 6 | -0.81
O=C(c1ccncc1Cl)N1CCCC12CCCCC2 | -19 | 1.57
Cc1oc(-c2ccc3ccccc3c2)nc1CN1[C@@H]2CC[C@H]1CNC2 | -10 | 1.19
CCn1c(CN(Cc2ccc(OC)cc2)C2CC2)nc2cc(S(=O)(=O)N3CCCCC3)ccc21 | -10 | 1.41
